Data on three molecules can be found in patent US20140044674A1 (Hoffmann-La Roche, published 2014).

For assay [1], the target named is T1, His-tagged mouse FAP ECD (mouse, UniProt P97321 27-761).
T1 construct: also called mu FAP; murine FAP
Nature of the assay: SPR ProteOn XPR36, 25 C; His-tagged FAP captured by anti-penta-His IgG, construct as analyte; off-rate could not be fitted, estimate used. The procedure:
(§1) To determine the affinities to FAP, the target protein was captured via its H6-tag by a covalently immobilized anti-H6 antibody (FIG. 9A). Briefly, anti-penta His IgG (Qiagen #34660, mouse monoclonal antibody) was immobilized at high levels (up to ˜5.000 RU) at 30 μ/min onto separate vertical channels of a GLM chip by simultaneously activating all channels for 5 min with a freshly prepared mixture of 1-ethyl-3-(3-dimethylaminopropyl)-carboiimide (EDC) and N-hydroxysuccinimide (sNHS), subsequently injecting 15 μg/ml anti-penta His IgG in 10 mM sodium acetate buffer pH 4.5 for 180 sec. Channels were blocked using a 5-min injection of ethanolamine. H6-tagged FAP from different species (see SEQ ID NOs 81, 83 and 85) was captured from a 5 μg/ml dilution in running buffer along the vertical channels for 60 s at 30 μl/min to achieve ligand densities between ˜250 and 600 RU. In a one-shot kinetic assay set-up (OSK), antibody-IL-10 fusion constructs were injected as analytes along the horizontal channels in a five-fold dilution series ranging from 50 to 0.08 nM at 100 μl/min. Association phase was recorded for 180 s, dissociation phase for 600 s. […] Running buffer (PBST) was injected along the sixth channel to provide an “in-line” blank for referencing. Association rates (kₒₙ) and dissociation rates (koff) were calculated using a simple 1:1 Langmuir binding model (ProteOn Manager software version 2.1) by simultaneously fitting the association and dissociation sensorgrams. The equilibrium dissociation constant (KD) was calculated as the ratio koff/kₒₙ.

The target of assay [2] is T2, recombinant human FAP coated on cell culture plates (human, UniProt Q12884 26-760, limits assumed). Nature of the assay: cell-based or functional assay.
The target in assay [3] is T3, IL-10R on freshly isolated human blood monocytes (human, UniProt Q13651 22-578; Q08334 20-325).
T3 sequence (looked up) 1: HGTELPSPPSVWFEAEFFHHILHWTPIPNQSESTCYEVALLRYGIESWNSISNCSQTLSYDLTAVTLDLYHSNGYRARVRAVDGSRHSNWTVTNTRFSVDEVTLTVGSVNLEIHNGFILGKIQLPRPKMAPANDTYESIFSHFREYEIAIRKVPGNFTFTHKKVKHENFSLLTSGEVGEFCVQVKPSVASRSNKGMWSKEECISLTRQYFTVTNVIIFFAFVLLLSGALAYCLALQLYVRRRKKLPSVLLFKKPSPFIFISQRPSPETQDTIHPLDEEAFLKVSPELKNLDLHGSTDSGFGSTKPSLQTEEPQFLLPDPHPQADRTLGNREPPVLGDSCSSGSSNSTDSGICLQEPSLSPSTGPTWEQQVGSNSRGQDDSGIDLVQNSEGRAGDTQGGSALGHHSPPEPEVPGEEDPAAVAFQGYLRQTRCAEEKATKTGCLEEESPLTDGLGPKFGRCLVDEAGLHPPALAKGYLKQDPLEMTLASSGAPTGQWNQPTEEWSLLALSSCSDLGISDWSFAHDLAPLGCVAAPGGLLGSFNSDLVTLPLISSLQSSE
T3 sequence (looked up) 2: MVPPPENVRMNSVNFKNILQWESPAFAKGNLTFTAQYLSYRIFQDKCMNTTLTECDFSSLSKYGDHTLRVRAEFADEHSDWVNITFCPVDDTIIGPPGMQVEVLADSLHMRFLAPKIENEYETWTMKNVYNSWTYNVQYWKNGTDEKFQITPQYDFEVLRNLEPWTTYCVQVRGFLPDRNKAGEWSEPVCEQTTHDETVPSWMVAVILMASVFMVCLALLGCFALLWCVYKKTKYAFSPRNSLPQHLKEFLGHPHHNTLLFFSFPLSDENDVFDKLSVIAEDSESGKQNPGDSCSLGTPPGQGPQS
Nature of the assay: cell-based or functional assay.

Assay [4] concerns the target T2, recombinant human FAP coated on cell …. Description: cell-based or functional assay. The source holds these as a separate data set.
Assay [5] has as its target T4, His-tagged cynomolgus FAP ECD (cynomolgus, UniProt Q12884 27-760 (human entry)).
T4 construct: also called cyno FAP
Description: SPR ProteOn XPR36, 25 C; His-tagged FAP captured by anti-penta-His IgG, construct as analyte. The procedure: as §1

In assay [6] the target is T5, His-tagged human FAP ECD (human, UniProt Q12884 27-760).
T5 construct: also called hu FAP
The assay is described as above. On the procedure: as §1

Assay [7] has as its target T1, His-tagged mouse FAP ECD. Described as above. The procedure:
as §1

Assay [8] addresses T1, His-tagged mouse FAP ECD. Nature of the assay: SPR ProteOn XPR36, 25 C; His-tagged FAP captured by anti-penta-His IgG, construct as analyte; KD calculated with the estimated koff. The procedure:
as §1

For assay [9], the target named is T2, recombinant human FAP coated on cell …. Description: cell-based or functional assay. This is another data set of the same source.

B1: 4G8 Fab-IL-10M1-Fab (other)
heavy: [about 100 residues omitted here]GWLGNFDYWGQGTLVTVSSASTKGPSVFPLAPSSKSTSGGTAALGCLVKDYFPEPVTVSWNSGALTSGVHTFPAVLQSSGLYSLSSVVTVPSSSLGTQTYICNVNHKPSNTKVDKKVEPKSCDGGGGSGGGGSGGGGSSPGQGTQSENSCTHFPGNLPNMLRDLRDAFSRVKTFFQMKDQLDNLLLKESLLEDFKGYLGCQALSEMIQFYLEEVMPQAENQDPDIKAHVNSLGENLKTLRLRLRRCHRFLPCENGGGSGGKSKAVEQVKNAFNKLQEKGIYKAMSEFDIFINYIEAYMTMKIRNGGGGSGGGGSGGGGS[about 100 residues omitted here][about 120 residues omitted here]
light: EIVLTQSPGTLSLSPGERATLSCRASQSVSRSYLAWYQQKPGQAPRLLIIGASTRATGIPDRFSGSGSGTDFTLTISRLEPEDFAVYYCQQGQVIPPTFGQGTKVEIKRTVAAPSVFIFPPSDEQLKSGTASVVCLLNNFYPREAKVQWKVDNALQSGNSQESVTEQDSKDSTYSLSSTLTLSKADYEKHKVYACEVTHQGLSSPVTKSFNRGEC
notes: Tandem Fab fragments with an engineered monomeric IL-10 between them
By koff is commonly meant the rate constant with which the complex falls apart. The term Kd denotes the concentration at which binding is half-saturated. One may read the kon as the second-order rate constant of association. The low end stands for slower complex formation, the high end for faster complex formation. For the molecule B1, the koff in assay [1] is roughly 1e-05 s⁻¹. In [2], the “EC50, suppression of hIL-1β production by monocytes, set-up (b) (immobilized), donor 2” value amounted to 3.34 nM and the “EC50, suppression of hTNFα production by monocytes, set-up (b) (immobilized), donor 2” value was 2.85 nM. For the same molecule, in assay [3], the “EC50 [nM] pSTAT3 induction, primary monocytes, Donor 1” value was 8.2 nM; the “EC50 [nM] pSTAT3 induction, primary monocytes, Donor 2” value came out at 9.01 nM; the “EC50 [nM] pSTAT3 induction, primary monocytes, Donor 3” value was 6.81 nM. In addition, the “EC50, suppression of hIL-1β production by monocytes, set-up (b) (immobilized), donor 3” value in assay [4] worked out at 4.71 nM. Further, in assay [5], the affinity, expressed as Kd, was 0.0629 nM; the koff stood at 0.000242 s⁻¹; the kon was 3.84e+06 M⁻¹ s⁻¹. In [6], binding was put at a Kd of 0.0557 nM, the koff worked out at 0.000204 s⁻¹ and the kon came to 3.66e+06 M⁻¹ s⁻¹. The same molecule had an association rate constant (kon) in assay [7] of 1.52e+06 M⁻¹ s⁻¹.

B2: 4G8 IgG-IL-10M1 (other)
heavy 1: [about 100 residues omitted here]GWLGNFDYWGQGTLVTVSSASTKGPSVFPLAPSSKSTSGGTAALGCLVKDYFPEPVTVSWNSGALTSGVHTFPAVLQSSGLYSLSSVVTVPSSSLGTQTYICNVNHKPSNTKVDKKVEPKSCDKTHTCPPCPAPEAAGGPSVFLFPPKPKDTLMISRTPEVTCVVVDVSHEDPEVKFNWYVDGVEVHNAKTKPREEQYNSTYRVVSVLTVLHQDWLNGKEYKCKVSNKALGAPIEKTISKAKGQPREPQVCTLPPSRDELTKNQVSLSCAVKGFYPSDIAVEWESNGQPENNYKTTPPVLDSDGSFFLVSKLTVDKSRWQQGNVFSCSVMHEALHNHYTQKSLSLSPGGGGGSGGGGSGGGGSSPGQGTQSENSCTHFPGNLPNMLRDLRDAFSRVKTFFQMKDQLDNLLLKESLLEDFKGYLGCQALSEMIQFYLEEVMPQAENQDPDIKAHVNSLGENLKTLRLRLRRCHRFLPCENGGGSGGKSKAVEQVKNAFNKLQEKGIYKAMSEFDIFINYIEAYMTMKIRN
heavy 2: [about 100 residues omitted here][about 120 residues omitted here][human IgG1 Fc with changes omitted here]
light: EIVLTQSPGTLSLSPGERATLSCRASQSVSRSYLAWYQQKPGQAPRLLIIGASTRATGIPDRFSGSGSGTDFTLTISRLEPEDFAVYYCQQGQVIPPTFGQGTKVEIKRTVAAPSVFIFPPSDEQLKSGTASVVCLLNNFYPREAKVQWKVDNALQSGNSQESVTEQDSKDSTYSLSSTLTLSKADYEKHKVYACEVTHQGLSSPVTKSFNRGEC
notes: Knob-into-hole IgG1 (LALA P329G) with one engineered monomeric IL-10; the assignment is inferred
Consider B2, for which, in assay [1], the koff was roughly 1e-05 s⁻¹. Further, in [2], the “EC50, suppression of hIL-1β production by monocytes, set-up (b) (immobilized), donor 2” value worked out at 0.14 nM; the “EC50, suppression of hIL-6 production by monocytes, set-up (b) (immobilized), donor 2” value came to 0.723 nM; the “EC50, suppression of hTNFα production by monocytes, set-up (b) (immobilized), donor 2” value turned out to be 0.059 nM. Further, the Kd in [8] was 0.00503 nM. In addition, in assay [4], the “EC50, suppression of hIL-1β production by monocytes, set-up (b) (immobilized), donor 3” value came out at 0.117 nM; the “EC50, suppression of hIL-6 production by monocytes, set-up (b) (immobilized), donor 3” value came to 0.254 nM; the “EC50, suppression of hTNFα production by monocytes, set-up (b) (immobilized), donor 3” value came to 0.145 nM. In assay [5], this molecule displayed a Kd of 0.0341 nM, a koff of 0.000128 s⁻¹ and a kon of 3.75e+06 M⁻¹ s⁻¹. For the same molecule, in [6], the Kd worked out at 0.0352 nM, the koff worked out at 7.93e-05 s⁻¹ and the kon amounted to 2.26e+06 M⁻¹ s⁻¹. In assay [7], the kon worked out at 1.99e+06 M⁻¹ s⁻¹.

B3: 4G8 Fab-scIL-10-Fab (other)
heavy: [about 100 residues omitted here]GWLGNFDYWGQGTLVTVSSASTKGPSVFPLAPSSKSTSGGTAALGCLVKDYFPEPVTVSWNSGALTSGVHTFPAVLQSSGLYSLSSVVTVPSSSLGTQTYICNVNHKPSNTKVDKKVEPKSCDGGGGSGGGGSGGGGSSPGQGTQSENSCTHFPGNLPNMLRDLRDAFSRVKTFFQMKDQLDNLLLKESLLEDFKGYLGCQALSEMIQFYLEEVMPQAENQDPDIKAHVNSLGENLKTLRLRLRRCHRFLPCENKSKAVEQVKNAFNKLQEKGIYKAMSEFDIFINYIEAYMTMKIRNGGGGSGGGGSGGGGSGGGGSSPGQGTQSENSCTHFPGNLPNMLRDLRDAFSRVKTFFQMKDQLDNLLLKESLLEDFKGYLGCQALSEMIQFYLEEVMPQAENQDPDIKAHVNSLGENLKTLRLRLRRCHRFLPCENKSKAVEQVKNAFNKLQEKGIYKAMSEFDIFINYIEAYMTMKIRNGGGGSGGGGSGGGGS[about 100 residues omitted here][about 120 residues omitted here]
light: EIVLTQSPGTLSLSPGERATLSCRASQSVSRSYLAWYQQKPGQAPRLLIIGASTRATGIPDRFSGSGSGTDFTLTISRLEPEDFAVYYCQQGQVIPPTFGQGTKVEIKRTVAAPSVFIFPPSDEQLKSGTASVVCLLNNFYPREAKVQWKVDNALQSGNSQESVTEQDSKDSTYSLSSTLTLSKADYEKHKVYACEVTHQGLSSPVTKSFNRGEC
notes: Tandem Fab fragments with a single chain IL-10 dimer between them; also called Fab-scIL-10-Fab (clone 4G8)
In the case of B3, in assay [1], the off-rate (koff) is roughly 1e-05 s⁻¹. In assay [9], the “EC50, suppression of hIL-1β production by monocytes, set-up (b) (immobilized)” value came to 0.1 nM; the “EC50, suppression of hIL-6 production by monocytes, set-up (b) (immobilized)” value worked out at 0.2 nM; the “EC50, suppression of hTNFα production by monocytes, set-up (b) (immobilized)” value turned out to be 0.03 nM. In addition, in assay [3], the “EC50 [nM] pSTAT3 induction, primary monocytes, Donor 1” value was found to be 0.557 nM; the “EC50 [nM] pSTAT3 induction, primary monocytes, Donor 2” value was 0.43 nM; the “EC50 [nM] pSTAT3 induction, primary monocytes, Donor 3” value was determined as 0.116 nM. Further, the dissociation constant Kd in assay [8] was 0.00556 nM. In assay [5], this molecule registered a dissociation constant Kd of 0.0544 nM, a koff of 0.000219 s⁻¹ and a kon of 4.03e+06 M⁻¹ s⁻¹. Besides, in [6], binding was put at a Kd of 0.0543 nM, the koff was 0.000218 s⁻¹ and the on-rate constant (kon) is 4.01e+06 M⁻¹ s⁻¹. For the same molecule, the kon in assay [7] is 1.8e+06 M⁻¹ s⁻¹.
